Among the data in the supplement of paper PMC8285479 are normalised cell viability values, retold here.

This experiment deals with NCI-H1944. As to the kind of experiment: normalised cell viability (NPI; 0 = phenylarsine oxide control, 1 = DMSO control) (fraction of DMSO control); NCI-H1944 is a non-small cell lung cancer line; higher = more viable cells (less compound toxicity). The settings on record: 6 days.
Where [1] appears, read: glucocorticoid arm: hydrocortisone 2.75 uM co-treatment, compound 1 µM.
[2] abbreviates: glucocorticoid arm: hydrocortisone 2.75 uM co-treatment, compound 5 µM.
The mark [3] stands for this setting: glucocorticoid arm: hydrocortisone 2.75 uM pre-treated 2 days and continued, compound 1 µM.
Where [4] appears, read: glucocorticoid arm: hydrocortisone 2.75 uM pre-treated 2 days and continued, compound 5 µM.
Where [5] appears, read: glucocorticoid arm: vehicle, compound 1 µM.
Where [6] appears, read: glucocorticoid arm: vehicle, compound 5 µM.

Where a name gives a salt, the structure may show the parent alone. ± gives the standard deviation of the averaged measurements. The full ranking holds about 1,900 compounds; the median of “normalised cell viability (NPI; 0 = phenylarsine oxide control, 1 = DMSO control)” is about 1, and the lowest 2% start at about 0.039. The list shows a part of the results.
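Further: CTB read-out in 384-well plates, mean of triplicate wells, normalised per plate against 1 µM phenylarsine oxide and 0.1% DMSO, compounds added 24 h after seeding.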

For `N[C@H](CCCCCP(=O)(O)O)C(=O)O` [D(-)-2-Amino-7-phosphonoheptanoic acid], the normalised cell viability was 0.9967 ± 0.0058 under setting [1]; 1.01 ± 0.013 under setting [2]; 0.997 ± 0.003 under setting [3]; 1.01 ± 0.018 under setting [4]; 0.997 ± 0.011 under setting [5]; 1.01 under setting [6].

As to `Oc1cc2c(cc1O)[C@H]1c3ccccc3CN[C@@H]1CC2` (racemic) [Dihydrexidine hydrochloride], the normalised cell viability under setting [1] was determined as 1.002 ± 0.0068; the normalised cell viability under setting [2] worked out at 0.995 ± 0.005; the normalised cell viability under setting [3] amounted to 1.002 ± 0.0076; the normalised cell viability under setting [4] was 0.994 ± 0.018; the normalised cell viability under setting [5] was 0.9917 ± 0.0059; the normalised cell viability under setting [6] was determined as 0.9897 ± 0.0031.

As to `c1ccc(C2(c3ccccc3)CC2C2=NCCN2)cc1` (stereo unspecified) [Cibenzoline succinate], the normalised cell viability under setting [1] came to 0.992 ± 0.013; the normalised cell viability under setting [2] was 0.994 ± 0.027; the normalised cell viability under setting [3] amounted to 1.003 ± 0.0058; the normalised cell viability under setting [4] worked out at 1.02 ± 0.078; the normalised cell viability under setting [5] is 1.007 ± 0.0058; the normalised cell viability under setting [6] came out at 1.01 ± 0.01.

Consider `C[C@]12N[C@H](Cc3ccccc31)c1ccccc12` [MK-801 (Dizocilpine)], for which the normalised cell viability under setting [1] stood at 1.02 ± 0.01; the normalised cell viability under setting [2] was found to be 1.03 ± 0.017; the normalised cell viability under setting [3] was found to be 1.02 ± 0.017; the normalised cell viability under setting [4] was 1.04 ± 0.032; the normalised cell viability under setting [5] is 1.017 ± 0.0058; the normalised cell viability under setting [6] was 1.01 ± 0.01.

With `CCC(=O)CCCCC[C@@H]1NC(=O)[C@H]2CCCCN2C(=O)[C@H]([C@@H](C)CC)NC(=O)[C@H](Cc2cn(OC)c3ccccc23)NC1=O` [Apicidin], the normalised cell viability by setting is: under setting [1], 0.387 ± 0.16; under setting [2], 0.954 ± 0.041; under setting [3], 0.644 ± 0.15; under setting [4], 0.983 ± 0.03; under setting [5], 0.0476 ± 0.028; under setting [6], 0.96 ± 0.022.

As to `O=C1CCCN1CC#CCN1CCCC1` [Oxotremorine sesquifumarate salt], the normalised cell viability reads like this: under setting [1], 1.007 ± 0.0058; under setting [2], 1.02 ± 0.027; under setting [3], 0.993 ± 0.019; under setting [4], 1.03 ± 0.072; under setting [5], 1.003 ± 0.0058; under setting [6], 1.005 ± 0.0092.

Regarding `NC(Cn1oc(=O)[nH]c1=O)C(=O)O` (single isomer, unassigned; (+)) [(+)-Quisqualic acid], the normalised cell viability reads like this: under setting [1], 1.01 ± 0.01; under setting [2], 0.973 ± 0.028; under setting [3], 1.01 ± 0.031; under setting [4], 1.01 ± 0.021; under setting [5], 1.01 ± 0.012; under setting [6], 1.005 ± 0.0087.

Take `NNC(=O)c1ccc(O)cc1` [4-Hydroxybenzhydrazide]: the normalised cell viability runs as follows: under setting [1], 1.01 ± 0.013; under setting [2], 0.992 ± 0.015; under setting [3], 0.996 ± 0.015; under setting [4], 0.989 ± 0.011; under setting [5], 1.006 ± 0.0063; under setting [6], 1.001 ± 0.0085.

For the compound `COc1ccc(Cc2nccc3cc(OC)c(OC)cc23)cc1OC` [Papaverine hydrochloride], the normalised cell viability was 0.9937 ± 0.0023 under setting [1]; 0.969 ± 0.007 under setting [2]; 0.989 ± 0.0062 under setting [3]; 1.01 ± 0.026 under setting [4]; 1.013 ± 0.0058 under setting [5]; 1.02 ± 0.017 under setting [6].

Take `CNCCc1c[nH]c2ccc(O)cc12` [N-omega-Methyl-5-hydroxytryptamine oxalate salt]: the normalised cell viability was determined as 0.99 ± 0.01 under setting [1]; 0.958 ± 0.035 under setting [2]; 0.986 ± 0.011 under setting [3]; 1 ± 0.086 under setting [4]; 0.97567 ± 0.00058 under setting [5]; 0.977 ± 0.013 under setting [6].

For the compound `NCCCP(=O)(O)O` [3-Aminopropylphosphonic acid], the normalised cell viability runs as follows: under setting [1], 1.001 ± 0.0081; under setting [2], 1 ± 0.02; under setting [3], 1.01; under setting [4], 0.9885 ± 0.0021; under setting [5], 0.996 ± 0.0069; under setting [6], 1.003 ± 0.0061.

For `CN1C2CC(O)CC1C1OC12` (stereo unspecified) [Scopine], the normalised cell viability under setting [1] amounted to 1.02 ± 0.02; the normalised cell viability under setting [2] is 0.985 ± 0.028; the normalised cell viability under setting [3] worked out at 1.02 ± 0.011; the normalised cell viability under setting [4] was 1.01; the normalised cell viability under setting [5] was 1.003 ± 0.0064; the normalised cell viability under setting [6] was found to be 1.01 ± 0.035.

Consider `O=C[C@H](Cl)[C@@H](O)[C@H](O)[C@H](O)CO` [2-Chloro-2-deoxy-D-glucose], for which the normalised cell viability is 1 ± 0.013 under setting [1]; 0.9953 ± 0.0015 under setting [2]; 1.01 ± 0.012 under setting [3]; 0.994 ± 0.01 under setting [4]; 0.9807 ± 0.0011 under setting [5]; 0.9817 ± 0.0067 under setting [6].

Consider `NNC(N)=O` [Semicarbazide hydrochloride], for which the normalised cell viability runs as follows: under setting [1], 1 ± 0.0087; under setting [2], 1 ± 0.013; under setting [3], 1.02 ± 0.035; under setting [4], 1.01 ± 0.01; under setting [5], 0.9933 ± 0.0011; under setting [6], 0.986 ± 0.003.

Regarding `CNCC(=O)c1ccc(O)c(O)c1` [Adrenalone HCl], the normalised cell viability by setting is: under setting [1], 1.01 ± 0.01; under setting [2], 1 ± 0.018; under setting [3], 1.01 ± 0.01; under setting [4], 1.02 ± 0.015; under setting [5], 1.001 ± 0.0082; under setting [6], 1.007 ± 0.0058.

Turning to `C=C(C)[C@H]1Cc2c(ccc3c2O[C@@H]2COc4cc(OC)c(OC)cc4[C@@H]2C3=O)O1` [Rotenone], the normalised cell viability by setting is: under setting [1], 0.627 ± 0.064; under setting [2], 0.39 ± 0.013; under setting [3], 0.969 ± 0.016; under setting [4], 0.685 ± 0.094; under setting [5], 0.22 ± 0.011; under setting [6], 0.115 ± 0.019.
